About 660 (0.18%) of roughly 360,000 compounds were called active. The shares of active, inactive and inconclusive entries below differ from those in the screen. Calls follow the shape of the dose curve; as a rule, active = well fitted inhibition curve with a large enough effect; inconclusive = small, poorly fitted or top-dose-only effect; inactive = no such curve, though single readings can be large or run the other way. No potency is given beside an inconclusive call; the fits are too rough.
Target: Rap guanine nucleotide exchange factor 4 (Homo sapiens) (UniProt Q8WZA2)
Test: qHTS for Antagonist of cAMP-regulated guanine nucleotide exchange factor 2 (EPAC2): primary screen; also: nearly all actives have a fitted effect of over 45% in size
Conditions: EPAC2 GEF exchange of Rap1B-BODIPY-GDP, fluorescence; activity, negative = inhibition: at 114 µM (top of the series) unless noted
% is scaled to controls: 0 for no effect and ±100 for the full control effect; potency is read from the fitted curve at half-maximal effect; tags tell the direction and shape of the fitted curve.

UniProt Q8WZA2, sequence (Q8WZA2 whole entry, looked up): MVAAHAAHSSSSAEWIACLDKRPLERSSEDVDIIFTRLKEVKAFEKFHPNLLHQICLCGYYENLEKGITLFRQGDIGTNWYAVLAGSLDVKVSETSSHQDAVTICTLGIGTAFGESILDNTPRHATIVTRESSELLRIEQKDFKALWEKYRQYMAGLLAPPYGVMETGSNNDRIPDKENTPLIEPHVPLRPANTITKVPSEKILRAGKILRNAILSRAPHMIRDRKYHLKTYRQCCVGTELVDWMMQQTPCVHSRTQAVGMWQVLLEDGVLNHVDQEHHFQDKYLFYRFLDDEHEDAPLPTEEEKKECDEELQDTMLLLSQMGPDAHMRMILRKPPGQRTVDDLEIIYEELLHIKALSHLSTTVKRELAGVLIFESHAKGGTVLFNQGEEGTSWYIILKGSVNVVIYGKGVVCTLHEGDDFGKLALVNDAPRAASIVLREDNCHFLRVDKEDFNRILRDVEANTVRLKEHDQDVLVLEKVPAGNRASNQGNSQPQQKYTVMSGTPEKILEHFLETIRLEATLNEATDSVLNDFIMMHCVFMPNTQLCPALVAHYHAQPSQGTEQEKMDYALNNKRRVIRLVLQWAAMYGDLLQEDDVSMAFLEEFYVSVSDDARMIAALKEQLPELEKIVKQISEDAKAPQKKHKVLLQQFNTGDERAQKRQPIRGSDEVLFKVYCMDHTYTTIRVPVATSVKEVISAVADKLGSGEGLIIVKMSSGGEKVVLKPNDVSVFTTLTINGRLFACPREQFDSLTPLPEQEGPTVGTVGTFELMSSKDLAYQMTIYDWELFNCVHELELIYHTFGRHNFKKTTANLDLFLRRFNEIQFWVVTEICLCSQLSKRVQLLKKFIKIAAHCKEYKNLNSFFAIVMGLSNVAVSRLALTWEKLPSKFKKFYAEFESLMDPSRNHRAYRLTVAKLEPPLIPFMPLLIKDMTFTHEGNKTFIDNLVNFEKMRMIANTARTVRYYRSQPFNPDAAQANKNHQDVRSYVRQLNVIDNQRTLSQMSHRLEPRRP

SMILES	Potency	activity, negative = inhibition
O=C(O)c1cccc(Cn2c(Cl)c(/C=N/NC(=O)c3cc4ccccc4cc3O)sc2=O)c1	inactive	–
COc1ccc(-c2nc3ccc(Cl)cn3c2Cc2cccc(F)c2)cc1OC	inconclusive [inhibitor, partial curve]	–
COc1cccc(CN2CCC(C(=O)N3CCN(Cc4ccc5c(c4)OCO5)CC3)CC2)c1	inactive	–
O=C(NCCN1CCCC1)C(c1ccccc1)c1ccccc1	inconclusive [inhibitor, full curve]	–
CC(/C=N/NC(=O)CSc1ccccn1)=C\c1ccc(C(C)C)cc1	inactive	–
CC1CCN(Cc2c(C(=O)N/N=C/c3cc(Cl)ccc3O)nnn2-c2nonc2N)CC1	inactive	–
Oc1[nH]c2ccc(Br)cc2c1N=Nc1ccc(F)cc1	active: 70.8 µM	–
Cc1ccccc1C1c2[nH]c3ccccc3c2CCN1Cc1cccn1-c1ncccn1 (stereo not drawn)	inconclusive [inhibitor, single point]	–
CCn1c(SCC(=O)N(C)CC(=O)Nc2ccc(OC)cc2)nnc1-c1ccco1	inactive	–
COc1ccc(Cl)cc1NC(=O)CN(C)C(=O)C12CC3CC(CC(Cl)(C3)C1)C2	inconclusive [inhibitor, partial curve]	–
CC(NC1=CC(=O)c2cccnc2C1=O)C(O)c1ccccc1 (stereo not drawn)	inconclusive [inhibitor, partial curve]	–
CCOc1cc(/C=C\c2[nH]c(=O)[nH]c(=O)c2[N+](=O)[O-])ccc1OC(C)CC (stereo not drawn)	inactive	–
CCOC(=O)c1cc(-c2ccc(/C=C3/C(=O)N(c4ccc(C(=O)O)cc4)N=C3C)o2)ccc1Cl	inactive	–
CCC1=C2CC[C@H]3C(=O)N(c4ccccc4)C(=O)[C@H]3[C@H]2[C@@]2(C)C(=NCC(=O)OC)OC(=O)N2C1=O	inconclusive [inhibitor, single point]	–
O=c1oc2ccccc2c(O)c1Sc1ccc(Cl)cc1	inconclusive [inhibitor, partial curve]	–
Cc1ccc(NC(=S)N(CCN2CCCCC2)Cc2ccco2)cc1Cl	–	inconclusive: -20% [inhibitor]
Nc1ccccc1C#CC(=O)c1ccccc1	inconclusive [inhibitor, single point]	–
Cc1noc(C)c1CSCC(=O)Nc1ccc(S(=O)(=O)C(F)F)cc1	inactive	–
CC(C)CC1Nc2ncnc(N3CCN(c4ccccn4)CC3)c2N(Cc2ccc(Cl)cc2)C1=O (stereo not drawn)	inconclusive [inhibitor, single point]	–
COc1ccc(Cn2c(=S)[nH]c3cc(OC)c(OC)cc3c2=O)cc1	inconclusive [inhibitor, single point]	–
N#Cc1sc2nc(C3CC3)cc(-c3ccccc3)c2c1N	inactive	–
Cc1nn(C)c(C)c1N1C(=O)c2cccc3c(N)ccc(c23)C1=O	inactive	–

SMILES	Potency	activity, negative = inhibition
CC(C)C[C@H](NC(=O)c1[nH]cnc1C(=O)Nc1ccccc1F)C(=O)OC(C)(C)C	inconclusive [inhibitor, partial curve]	–
Cc1ccc2nc(-c3ccccc3)c(Cc3cccc(F)c3)n2c1	inconclusive [inhibitor, partial curve]	–
CN(CCO)c1nc(N)c2c(N)nc3c(c2c1C#N)CC(=O)N3Cc1cccs1	inconclusive [inhibitor, single point]	–
CCn1cc(C(=O)N[C@H](C(=O)NCCO)C(C)C)c(=O)c2cc3c(cc21)OCO3	inconclusive [inhibitor, single point]	–
COc1ccc(-c2nc3ccc(C)cn3c2CC2CCCCC2)cc1OC	inconclusive [inhibitor, partial curve]	–
COc1ccc(OC)c(/C=C2\SC(=S)N(C(C(=O)O)c3ccccc3)C2=O)c1 (stereo not drawn)	inconclusive [inhibitor, partial curve]	–
C=CCC[C@H](CCCCC)OC(=O)/C=C/[C@@H](O)[C@H](O)C[C@H](O)CC=C	inconclusive [inhibitor, partial curve]	–
O=C(CSc1nc2ccc(NC(=O)C3CCCCC3)cc2s1)NCC1CCCO1 (stereo not drawn)	inactive	–
C=C1N(C)c2cc([N+](=O)[O-])c(N)cc2C1(C)C	inactive	–
Cc1noc(NS(=O)(=O)c2ccc(NC(=O)COc3ccc(Cl)cc3Cl)cc2)c1C	inconclusive [inhibitor, partial curve]	–
O=C(O)C1CCC(CNS(=O)(=O)c2ccc(Cl)cc2)CC1 (stereo not drawn)	inconclusive [inhibitor, single point]	–
Cc1ccc(CN2C(=O)C(C)Sc3ccc(C#N)cc32)cc1 (stereo not drawn)	inconclusive [inhibitor, partial curve]	–
CC(=O)Nc1ccc(S(=O)(=O)Nc2nc3ccc([N+](=O)[O-])cc3s2)cc1	inconclusive [inhibitor, partial curve, poor fit]	–
CCCc1c(-c2ccccc2F)ncn1Cc1ccccc1OC	inconclusive [inhibitor, partial curve]	–
Nc1nc(NCc2ccco2)nc(N2CCCCCC2)c1[N+](=O)[O-]	inconclusive [inhibitor, single point]	–
COc1ccccc1-n1c(C)c(C(=O)O)c2cc(OC)c3ccccc3c21	inconclusive [inhibitor, partial curve]	–
COc1cc(/C=C2\SC(=S)N(CC(=O)O)C2=O)ccc1OS(=O)(=O)c1ccc(C)cc1	inconclusive [inhibitor, partial curve]	–
N#Cc1c(NC(=O)c2ccc(Br)o2)n(-c2ccccc2)c2nc3ccccc3nc12	inconclusive [inhibitor, full curve]	–
CCCCCCCCCCCCCCCC(O)C[N+](C)(C)CCO (stereo not drawn)	inconclusive [inhibitor, single point]	–
CCC(/C=C1\Sc2ccc(OC)cc2N1CCO)=C\c1sc2ccc(OC)cc2[n+]1CCO	inconclusive [inhibitor, partial curve]	–
CSC1=NCCN1C(=O)C(C)(C)Oc1ccc(Cl)cc1	inconclusive [inhibitor, full curve]	–
